In all, about 270,000 compounds went through this assay and about 5,800 (2.1%) were called active. The shares of active, inactive and inconclusive entries below differ from those in the screen. Calls follow the shape of the dose curve; as a rule, active = well fitted inhibition curve with a large enough effect; inconclusive = small, poorly fitted or top-dose-only effect; inactive = flat fitted curve, though single readings scatter. Where the call is inconclusive, the potency comes from a doubtful curve fit.
Target: Microtubule-associated protein tau (Homo sapiens) (UniProt P10636)
Chain of UniProt P10636 (P10636 whole entry, looked up): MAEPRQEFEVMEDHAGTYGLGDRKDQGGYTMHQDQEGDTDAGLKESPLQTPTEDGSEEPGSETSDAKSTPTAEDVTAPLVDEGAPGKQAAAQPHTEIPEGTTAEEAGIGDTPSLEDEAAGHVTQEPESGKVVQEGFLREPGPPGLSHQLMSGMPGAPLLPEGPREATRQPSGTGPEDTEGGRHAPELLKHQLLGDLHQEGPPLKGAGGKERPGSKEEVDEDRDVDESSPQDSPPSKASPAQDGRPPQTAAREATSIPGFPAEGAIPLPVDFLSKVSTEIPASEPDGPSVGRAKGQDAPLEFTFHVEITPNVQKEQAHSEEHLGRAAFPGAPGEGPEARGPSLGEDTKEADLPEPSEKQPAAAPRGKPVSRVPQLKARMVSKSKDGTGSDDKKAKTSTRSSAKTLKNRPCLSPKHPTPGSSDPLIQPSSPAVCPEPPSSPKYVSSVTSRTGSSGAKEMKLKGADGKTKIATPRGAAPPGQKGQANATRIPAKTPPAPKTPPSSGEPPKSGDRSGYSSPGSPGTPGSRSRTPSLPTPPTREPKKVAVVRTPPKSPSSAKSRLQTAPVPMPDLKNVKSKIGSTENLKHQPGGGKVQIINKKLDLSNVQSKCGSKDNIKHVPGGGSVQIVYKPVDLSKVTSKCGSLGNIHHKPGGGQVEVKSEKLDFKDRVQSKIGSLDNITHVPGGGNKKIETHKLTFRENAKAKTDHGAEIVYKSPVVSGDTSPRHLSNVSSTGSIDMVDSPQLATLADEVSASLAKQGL
Test: qHTS for Inhibitors of Tau Fibril Formation, Thioflavin T Binding; also: nearly all actives have a fitted effect of over 55% in size
Details: recombinant tau K18 P301L, heparin-induced fibrillization, ThT fluorescence; series mostly up to 57.4 µM
How it was run: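 ThT emission at 510 nm, taken 1 hr after adding 30 uM dye, quantifies aggregates formed when 20 uM heparin acts on human tau K18 P301L for 6 hr at 37 C.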
Potency is read from the fitted curve at half-maximal effect; tags tell the direction and shape of the fitted curve.

SMILES	Potency
O=C(COc1ccccc1)NC(NC(=S)Nc1ccccc1O)C(Cl)(Cl)Cl (configuration not stated)	inconclusive: 31.6 µM [inhibitor, partial curve]
CCOc1ccc2nc(N(Cc3cccnc3)C(=O)c3ccco3)sc2c1	inactive
CCCCC(=Nc1ccccc1OC)C1=C(O)CC(c2ccccc2)CC1=O (configuration not stated)	inconclusive: 39.8 µM [inhibitor, single point]
Cc1nn(-c2ccccc2)c2nc(-c3ccco3)cc(C(=O)O)c12	inconclusive: 28.2 µM [inhibitor, single point]
CCN1CCN(c2nc(Nc3ccccc3)nc(N)c2[N+](=O)[O-])CC1	inconclusive: 15.8 µM [inhibitor, partial curve]
CN1CCN(C(=O)c2ccc3nc(-c4ccccc4)c(-c4ccccc4)nc3c2)CC1	inconclusive: 20 µM [inhibitor, single point]
O=C(COC(=O)CCC(=O)c1cccs1)NC(=O)c1ccc(OC(F)F)cc1	inconclusive: 20 µM [inhibitor, single point]
COc1ccc(NC(=O)CC2Sc3ncnn3C2=O)cc1 (configuration not stated)	inconclusive: 31.6 µM [inhibitor, partial curve]
COc1ccc(NC(=O)c2cc3n(n2)C(C(F)(F)F)CC(c2ccc(OC)cc2)N3)cc1 (configuration not stated)	inconclusive: 1 µM [inhibitor, full curve, poor fit]
CCN1C(=O)c2ccccc2Sc2ccc(NC(=O)Cc3ccc(OC)c(OC)c3)cc21	inactive
CCn1c(C)nc2cc(C(=O)NNC(=S)Nc3ccccc3)ccc21	inactive
N#C/C(=N\Nc1ccc(Cl)cc1)C(=O)c1ccccc1	active: 14.1 µM
Cc1ccc(C(=O)N2CCC(Cc3ccccc3)CC2)cc1[N+](=O)[O-]	inactive
CCc1cc2cc(C(=O)N3CCN(Cc4ccccc4)CC3)sc2s1	inconclusive: 11.2 µM [inhibitor, partial curve]
Cc1ccc(CNCc2ccc3c(c2)n(C)c(=O)n3C)cc1	inactive
O=C(CCNS(=O)(=O)c1ccc(Br)s1)Nc1ccc(Br)cc1	inactive
CCCc1cc(NCc2ccccn2)n2nc(C)c(-c3ccccc3)c2n1	inconclusive: 39.8 µM [inhibitor, single point]
Cc1ccc(/C=C/C(=O)NC2CCCCCCC2)o1	inconclusive: 15.8 µM [inhibitor, partial curve]
CCOC(=O)c1c(C)[nH]c(CCC(=O)NCc2cc(Br)ccc2OC)c1C	inconclusive: 20 µM [inhibitor, single point]
Oc1ccccc1-c1nc2c3ccccc3c3ccccc3c2[nH]1	inconclusive: 17.8 µM [inhibitor, partial curve]
CCOC(=O)Cc1cc(=O)n2[nH]c(C)c(-c3ccc(Cl)cc3)c2n1	inconclusive: 25.1 µM [inhibitor, partial curve]
Cc1ccc(C)c(N(CC(=O)Nc2ccccc2C(=O)NCc2ccco2)S(=O)(=O)c2ccccc2)c1	inactive
CC(C)(C)NC(=S)Nc1ccc(Nc2ccccc2)cc1	inconclusive: 10 µM [inhibitor, partial curve]
C=CCSC1=NC(=O)/C(=C/c2cccs2)S1	inconclusive: 31.6 µM [inhibitor, single point]

SMILES	Potency
COc1ccc(Cn2c3ccc(OC)cc3c3nc4ccccc4nc32)cc1	inconclusive: 3.55 µM [inhibitor, full curve]
CN1c2ccccc2C(C)(C)[C@]12C=Cc1cc(O)ccc1O2	active: 22.4 µM
CSc1nc(N)nc(SCC(=O)CC(=O)OC(C)C)c1C#N	inactive
COc1ccc(OC)c(C2CC(=O)N3CN(c4ccccc4)CSC3=C2C#N)c1 (configuration not stated)	active: 28.2 µM
COc1ccc(Cl)cc1-n1c(C)cc(C(=O)O)c1C	inactive
COc1ccc(NC(=O)N/C=C/c2ccco2)cc1	inconclusive: 22.4 µM [inhibitor, partial curve]
COc1ccc(-c2nnc(Nc3nc4c(OC)cccc4s3)o2)c(OC)c1	inconclusive: 4.47 µM [inhibitor, partial curve]
Nc1ncnc(Oc2cccc(C(F)(F)F)c2)c1[N+](=O)[O-]	inconclusive: 14.1 µM [inhibitor, partial curve]
O=[N+]([O-])c1cc2nc(O)c(O)nc2cc1[N+](=O)[O-]	inconclusive: 2 µM [inhibitor, partial curve]
CC(C)CSc1nc(N2CCOCC2)c2c(c1C#N)CC(C)(C)SC2	inconclusive: 17.8 µM [inhibitor, partial curve]
CC(C)NC(=O)C1=CC(c2ccc3c(c2)OCO3)=NS(=O)(=O)N1C	inactive
CC1CCC(=NNc2ccc(C(F)(F)F)cc2[N+](=O)[O-])CC1 (configuration not stated)	inconclusive: 28.2 µM [inhibitor, partial curve]
COc1ccccc1/C=C/C=N/n1c(-c2ccco2)n[nH]c1=S	inconclusive: 4.47 µM [inhibitor, partial curve]
COc1ccc(NC(=O)CN2CCN(Cc3ccc4c(c3)OCO4)CC2)cc1OC	inactive
Cc1cc(NC(=O)CSc2nc3c(cc2C#N)CCCC3)no1	inconclusive: 14.1 µM [inhibitor, partial curve]
Oc1ccc(/C=N/NC(=S)NCCN2CCOCC2)c(O)c1	inactive
COC(=O)c1sc(NC(=O)Cc2cccs2)nc1C	inactive
CCc1nn2c(=O)c(S(=O)(=O)Nc3ccc(C)cc3C)c(C)nc2s1	inconclusive: 31.6 µM [inhibitor, partial curve, poor fit]
O=C(CCSc1ccc(Cl)cc1)N1CCCCCC1	inactive
COc1ccc(-c2nc(CSCC(=O)NCCc3ccc(OC)c(OC)c3)c(C)o2)cc1	inconclusive: 12.6 µM [inhibitor, partial curve]
COc1ccccc1C(=O)Nc1ccc(N2CCN(Cc3ccccc3)CC2)cc1	inconclusive: 15.8 µM [inhibitor, partial curve]
CCCCCn1c(SCCCC)nc2c1c(=O)[nH]c(=O)n2C	inactive
COc1ccc(OC)c(N=c2oc3c(OC)cccc3cc2C(=O)NCc2ccco2)c1	inconclusive: 0.562 µM [inhibitor, partial curve]
COc1cc2ccccc2cc1C(=O)Nc1ccc(N2CCN(C)CC2)cc1	inconclusive: 14.1 µM [inhibitor, partial curve]

SMILES	Potency
CN1C(=O)/C(=C\c2cc(Br)cs2)c2ccccc21	inconclusive: 8.91 µM [inhibitor, full curve]
O=C(Nc1nc(-c2ccncc2)cs1)C1COc2ccccc2O1 (configuration not stated)	active: 28.2 µM
O=C(NC1(C(F)(F)F)N=C(c2ccccc2)N(Cc2ccccc2)C1=O)c1ccc(F)cc1 (configuration not stated)	inactive
O=C(N/N=C/c1ccc[nH]1)c1ccc([N+](=O)[O-])cc1	inconclusive: 15.8 µM [inhibitor, partial curve]
O=C(CN1C(=O)C2C3C=CC(C3)C2C1=O)N1CC(=O)N(CCc2ccccc2)C(=O)C1 (configuration not stated)	inactive
CCCCC(=O)OCc1cc(=O)n2nc(C3CC3)sc2n1	inactive
COc1ccc(-c2cc3ccc(OCc4nn[nH]n4)cc3oc2=O)cc1OC	inconclusive: 28.2 µM [inhibitor, partial curve]
CCCNS(=O)(=O)c1ccc(OCC(=O)NCCC2=CCCCC2)cc1	inactive
O=C(CCCN1C(=O)/C(=C\c2ccco2)SC1=S)Nc1ccc2ccccc2c1	inconclusive: 10 µM [inhibitor, partial curve]
COc1ccc(-n2nnnc2SCC(=O)c2ccc(OC)c(OC)c2)cc1	inconclusive: 14.1 µM [inhibitor, partial curve]
N/C(Cc1cccs1)=N\OC(=O)COc1ccc(Br)cc1	inconclusive: 25.1 µM [inhibitor, partial curve, poor fit]
CCn1ncc(C2=NOC(C(=O)Nc3ccc4c(c3)OCO4)C2)c1C (configuration not stated)	inactive
CC1CCN(c2nc3ccccc3nc2SCC(=O)Nc2ccccc2C(C)C)CC1	inactive
O=C(O)c1cc(O)ccc1N=Nc1ccccc1	inconclusive: 14.1 µM [inhibitor, partial curve]
O=C(CN1CCN(S(=O)(=O)c2ccccc2F)CC1)Nc1ccccc1C(=O)c1ccccc1	inactive
CCCc1nc2sc3ccccc3c(=O)c2c(=O)n1Cc1ccc(OC)cc1	inconclusive: 0.0316 µM [inhibitor, full curve, poor fit]
O=C(NCc1ccccc1)C1=C[C@@H](c2ccc(C(F)(F)F)cc2)C[C@@H](OCc2ccc(CO)cc2)O1	inconclusive: 39.8 µM [inhibitor, single point]
O=C(Nc1ccc(N2CCN(C(=O)c3ccc(Cl)cc3)CC2)cc1)c1ccc([N+](=O)[O-])o1	active: 12.6 µM
COc1cc(/C=C/CO)cc(OC)c1OC/C=C(\C)CCC=C(C)C	inconclusive: 14.1 µM [inhibitor, partial curve]
O=C(N/C(=C/c1ccco1)C(=O)N1CCOCC1)c1cccs1	inconclusive: 25.1 µM [inhibitor, single point]
Cc1nc2cc3ccccc3cc2c(=O)[nH]1	inconclusive: 20 µM [inhibitor, partial curve]
Cc1[nH]c2ccccc2c1/C=N/NC(=O)c1cccc([N+](=O)[O-])c1	inconclusive: 5.01 µM [inhibitor, full curve]
O=C(COc1cccc2cccnc12)NNC(=S)Nc1ccccc1	inconclusive: 25.1 µM [inhibitor, single point]
CCCOc1c(Cl)cc(/C=N/O)cc1OCC	inconclusive: 25.1 µM [inhibitor, single point]

Reference: PubChem BioAssay AID1460 (National Center for Advancing Translational Sciences (NCATS), 2008)
